# Hit rate of the full screen: of about 270,000 compounds, about 5,800 (2.1%) were called active. The inconclusive results got no clear call from the source; some entries with a clear call stand among them for comparison. Calls follow the shape of the dose curve; as a rule, active = well fitted inhibition curve with a large enough effect; inconclusive = small, poorly fitted or top-dose-only effect; inactive = flat fitted curve, though single readings scatter. Potencies of inconclusive entries are doubtful fits and often do not repeat.
# Biological target: Microtubule-associated protein tau (Homo sapiens) (UniProt P10636)
# UniProt P10636, sequence (P10636 whole entry, looked up): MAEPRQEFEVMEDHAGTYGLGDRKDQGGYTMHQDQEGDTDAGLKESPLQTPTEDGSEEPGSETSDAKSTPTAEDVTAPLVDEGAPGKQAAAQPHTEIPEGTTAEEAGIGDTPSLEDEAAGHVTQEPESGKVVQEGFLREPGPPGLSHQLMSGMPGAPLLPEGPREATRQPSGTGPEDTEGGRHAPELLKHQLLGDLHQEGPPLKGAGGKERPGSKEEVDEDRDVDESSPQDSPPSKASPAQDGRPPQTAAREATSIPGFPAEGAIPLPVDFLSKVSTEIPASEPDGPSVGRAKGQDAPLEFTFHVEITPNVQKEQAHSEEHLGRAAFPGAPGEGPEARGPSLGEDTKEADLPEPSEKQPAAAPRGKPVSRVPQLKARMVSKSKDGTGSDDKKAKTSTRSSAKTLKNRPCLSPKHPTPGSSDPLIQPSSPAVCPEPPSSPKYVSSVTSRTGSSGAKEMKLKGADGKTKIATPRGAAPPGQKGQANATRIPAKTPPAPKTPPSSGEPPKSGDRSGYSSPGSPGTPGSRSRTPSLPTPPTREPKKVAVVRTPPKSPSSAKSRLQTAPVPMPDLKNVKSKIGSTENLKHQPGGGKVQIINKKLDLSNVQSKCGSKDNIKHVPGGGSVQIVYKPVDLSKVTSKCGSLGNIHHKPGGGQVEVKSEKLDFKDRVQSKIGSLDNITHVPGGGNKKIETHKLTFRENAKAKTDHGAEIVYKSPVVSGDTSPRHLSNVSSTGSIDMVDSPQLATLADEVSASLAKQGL
# Assay: qHTS for Inhibitors of Tau Fibril Formation, Thioflavin T Binding; also: nearly all actives have a fitted effect of over 55% in size
# Conditions: recombinant tau K18 P301L (four-repeat tau fragment), heparin-induced fibrillization, ThT fluorescence; series mostly up to 57.4 µM; activity, negative = inhibition: at the top concentration
# How it was run: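 Recombinant human tau K18 fragment […] carrying P301L, 15 uM unlabeled plus 0.24 uM Alexa 594-labeled, was fibrillized with 20 uM heparin in 100 mM sodium acetate pH 7 for 6 hr at 37 C; 30 uM ThT fluorescence read after 1 hr.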
# % is scaled to controls: 0 for no effect and ±100 for the full control effect; potency is read from the fitted curve at half-maximal effect; tags tell the direction and shape of the fitted curve.
Structure (SMILES),"activity, negative = inhibition",Potency
CCCCOc1ccc(C(=O)NCc2cn3cccc(C)c3n2)cc1,inactive: 16.1%,
C=CCN(c1ccccc1)S(=O)(=O)c1cccc2cccnc12,,"inconclusive: 17.8 µM [inhibitor, partial curve]"
Cn1cnc([N+](=O)[O-])c1Sc1ccc(C(C)(C)C)cc1,,"inconclusive: 5.62 µM [inhibitor, partial curve, poor fit]"
COC(=O)[C@@]1(Cc2ccc(OC)cc2)[C@H]2c3cc(C(=O)N(C)C)n(C)c3C[C@H]2CN1C(=O)c1ccccc1,inactive: -1.13%,
CC(C)N1CCC(=NNc2ccc([N+](=O)[O-])cc2S(=O)(=O)N2CCOCC2)CC1,,"inconclusive: 17.8 µM [inhibitor, partial curve]"
CCOC(=O)c1ccccc1NC(=O)CN1C(=O)CC(c2ccccc2)Sc2ccccc21 (configuration not stated),,"inconclusive: 14.1 µM [inhibitor, partial curve]"
COC(=O)[C@@H]1CC[C@H](C)[C@@H](c2ccc(C)cc2)N1C(=O)c1ccc(/C=N/O[C@@H](C)CN2CCCCc3nc(C)c(C)cc32)cc1,,"inconclusive: 15.8 µM [inhibitor, partial curve]"
COc1cc2c(cc1NC(=O)c1ccncc1)oc1ccccc12,,"inconclusive: 39.8 µM [activator, single point]"
CN(C)C=NC1=NN(c2cccc(C(F)(F)F)c2)CC1,,"inconclusive: 15.8 µM [inhibitor, partial curve]"
CCOC(=O)N1CCC2(CC1)C(C#N)=C(N)Oc1c2c(C)nn1-c1cccc(Cl)c1,,active: 22.4 µM
COc1cc(/C=C(\C#N)c2ccccn2)cc(OC)c1O,,"inconclusive: 15.8 µM [inhibitor, partial curve]"
CC(Sc1nc2ccccc2s1)C(=O)Nc1ccc2c(c1)OCO2 (configuration not stated),,"inconclusive: 17.8 µM [inhibitor, partial curve]"
O=C(c1cnn(C(=O)COc2ccc(Cl)cc2)c1)c1ccccc1O,,"inconclusive: 20 µM [inhibitor, partial curve]"
O=C1CCCCC2CCCCN12 (configuration not stated),inactive: -9.37% [at 126 µM],
COc1ccccc1N1CCN(c2ncnc3c2cnn3-c2ccc(C)cc2)CC1,,"inconclusive: 2 µM [inhibitor, full curve, poor fit]"
CCCCCSc1nnc2c(n1)[nH]c1c(C)cccc12,inactive: -9.59%,
O=[N+]([O-])c1ccc(/C=N/n2cn[nH]c2=S)cc1,,"inconclusive: 15.8 µM [inhibitor, partial curve, poor fit]"
CCC(=O)c1cn(CC(=O)OC)c2ccccc12,inactive: -7.77%,
COc1ccc(OC(=O)c2cc3ccccc3o2)cc1,,"inconclusive: 14.1 µM [inhibitor, partial curve]"
C/C(=N\Nc1ncc(Cl)cc1Cl)c1ccc(N2CCOCC2)cc1,,"inconclusive: 7.94 µM [inhibitor, partial curve]"
COc1ccc(/C=N/Nc2ccc([N+](=O)[O-])cc2)cc1Cn1cc([N+](=O)[O-])cn1,,"inconclusive: 0.631 µM [inhibitor, full curve]"
O=C(NCc1ccco1)Nc1cccs1,,"inconclusive: 31.6 µM [inhibitor, partial curve]"
COc1ccc(C(=O)Nc2ccc(OC)c([N+](=O)[O-])c2)cc1Br,,"inconclusive: 2.51 µM [inhibitor, full curve]"

Structure (SMILES),"activity, negative = inhibition",Potency
Cc1c(C(=O)Nc2ccc(F)c(Cl)c2)sc2nc3n(c(=O)c12)CCC3,,"inconclusive: 35.5 µM [inhibitor, single point]"
O=[N+]([O-])c1cc(C(F)(F)F)ccc1NCCCCNS(=O)(=O)c1ccc(Cl)cc1,,"inconclusive: 14.1 µM [inhibitor, partial curve]"
Cc1cc2c(C)nc(N/N=C/c3ccccc3)nc2o1,,"inconclusive: 25.1 µM [inhibitor, single point]"
COc1ccccc1-c1cc(C(=O)N2CCN(c3ccc(F)cc3)CC2)no1,,"inconclusive: 3.16 µM [inhibitor, full curve]"
COc1ccc(NC(=O)c2cc3c([nH]c4ccccc43)c(C)n2)cc1,,"inconclusive: 11.2 µM [activator, partial curve, poor fit]"
Cc1ccc(CNC(=O)CNC(=S)N(Cc2ccccc2)Cc2ccccc2F)cc1,inactive: -9.86%,
COc1ccc(/C=N/Nc2cc(C)nc(-n3nc(C)cc3C)n2)c(OC)c1,,"inconclusive: 14.1 µM [inhibitor, partial curve]"
Fc1ccc(CNC(=S)Nc2ccccc2Cl)cc1,inactive: 2.01%,
CCc1ccc2oc(-c3ccc(C)c(NC(=O)Cc4ccccc4)c3)nc2c1,,"inconclusive: 7.08 µM [inhibitor, single point]"
CCn1c(C)nc2cc(C(=O)N/N=C/c3ccc(O)c(O)c3O)ccc21,,active: 3.16 µM
O=C(Cn1c(=O)c(CNc2ccccc2)cc2cc3c(cc21)OCCO3)Nc1ccccc1Cl,,active: 8.91 µM
CNC(=O)c1ccccc1NC(=O)c1ccc(C)c(S(=O)(=O)N2CCCCC2)c1,,"inconclusive: 2.51 µM [inhibitor, single point]"
COc1cc(/C=N/NC(=O)C(=O)NCc2ccco2)cc(Cl)c1O,,"inconclusive: 15.8 µM [inhibitor, partial curve]"
COc1ccc(C(=O)N2CCCC(CCC(=O)NCc3ccc(F)c(F)c3)C2)cc1F (configuration not stated),inactive: -3.72%,
Cc1ccccc1OCC(=O)N=Nc1c(O)n(C)c2ccccc12,,"inconclusive: 2.82 µM [inhibitor, full curve]"
O=S(=O)(NCC(c1ccco1)N1CCN(c2ccccc2)CC1)c1cc(F)ccc1F (configuration not stated),,"inconclusive: 3.98 µM [inhibitor, full curve]"
CCc1ccc(/C=C(/C#N)c2nc(-c3ccc(C)cc3)cs2)cc1,,"inconclusive: 12.6 µM [inhibitor, partial curve]"
CCCCNc1oc(-c2ccc(OC)cc2)nc1S(=O)(=O)c1ccccc1,,"inconclusive: 39.8 µM [inhibitor, single point]"
CCCOc1ccc(C(=O)N2CCC(c3nc4ccccc4s3)CC2)cc1,,"inconclusive: 15.8 µM [inhibitor, partial curve]"
O=C(/C=C/c1ccccc1)NCCc1ccc2c(c1)OCCO2,,"inconclusive: 28.2 µM [inhibitor, partial curve]"
Cc1ccc(S(=O)(=O)NCc2ccc3[nH]c(C)cc3c2)cc1,inactive: -20%,
C=CCOC(=O)CSCC(NC(=O)OC(C)(C)C)C(=O)OCC (configuration not stated),inactive: -3.36%,
N/C(=N\OS(=O)(=O)c1ccccc1)c1ccncc1,,"inconclusive: 25.1 µM [inhibitor, partial curve]"

Structure (SMILES),"activity, negative = inhibition",Potency
CCCC(NC(=S)NCC1CCCO1)C12CC3CC(CC(C3)C1)C2 (configuration not stated),inactive: -10.9%,
Cc1cc(C)cc(C(=O)NCCc2sc(-c3ccc(F)cc3)nc2C)c1,,"inconclusive: 25.1 µM [inhibitor, partial curve, poor fit]"
Cc1ccc(Nc2nc(-c3ccc(O)cc3O)cs2)nc1,,active: 5.01 µM
C=CCc1cc(C)ccc1OCC(O)CN1CCN(c2ccccc2)CC1 (configuration not stated),,"inconclusive: 3.55 µM [inhibitor, partial curve, poor fit]"
COc1ccc(-c2[nH]ncc2CN2C[C@@H]3CCC[C@H]2C3)c(F)c1,,"inconclusive: 12.6 µM [inhibitor, single point]"
Nc1nc(CN2CCN(c3ccccc3)CC2)nc(Nc2ccc(Cl)cc2)n1,,"inconclusive: 35.5 µM [inhibitor, single point]"
Cc1cccc(NC(=O)CSc2nc3n[nH]c(C)c3c(=N)n2-c2cccc(Cl)c2)c1,inactive: -7.55%,
Cc1nn(C)c2c1c(C(F)(F)F)cc(=O)n2Cc1ccc(Br)cc1F,inactive: -12.6%,
Cc1ccc(Sc2ncccc2COC(=O)Nc2c(C)cccc2C)cc1,,"inconclusive: 31.6 µM [inhibitor, partial curve]"
O=C(CCN1C(=O)c2ccccc2C1=O)Nc1cccc(F)c1,inactive: -9.93%,
CC1CCCCC1n1c(-c2cccnc2)n[nH]c1=S (configuration not stated),inactive: 2.71%,
CCOC(=O)c1c(C)[nH]c(C(=O)COC(=O)CCC(=O)c2ccc3c(c2)OCCO3)c1C,,"inconclusive: 5.01 µM [inhibitor, partial curve]"
O=C(NNS(=O)(=O)c1ccc(Cl)cc1Cl)c1cc2ncc(C(F)(F)F)cc2s1,,"inconclusive: 17.8 µM [inhibitor, partial curve]"
O=C(Nc1cccc(O)c1)c1ccc(C(=O)c2ccccc2)o1,,"inconclusive: 10 µM [inhibitor, partial curve]"
COc1ccccc1N(Cc1cc(=O)[nH]c2ccccc12)C(=O)c1cccc([N+](=O)[O-])c1,,"inconclusive: 10 µM [inhibitor, partial curve, poor fit]"
CNc1nc(C)cc(C)c1S(=O)(=O)c1ccc(C)cc1,,"inconclusive: 31.6 µM [inhibitor, partial curve, poor fit]"
Cn1c(=O)c2c(nc(CN3CCN(c4ccccc4F)CC3)n2Cc2ccc(F)cc2)n(C)c1=O,,"inconclusive: 12.6 µM [inhibitor, partial curve]"
CC(=O)Nc1ccc(NC(=S)NC(=O)c2cc3ccccc3o2)cc1,,"inconclusive: 0.398 µM [inhibitor, partial curve]"
CCCC1=NN2C(=N)/C(=C\c3cc(C)n(-c4cccc(C)c4)c3C)C(=O)N=C2S1,inactive: -14%,
CCC(=O)c1ccc(OCC(O)CN2CCN(c3cccc(C(F)(F)F)c3)CC2)cc1 (configuration not stated),,"inconclusive: 2.82 µM [inhibitor, partial curve]"
COCCNc1c(-c2cc3ccc(C)c(C)c3[nH]c2=O)nc2ccccn12,,"inconclusive: 15.8 µM [inhibitor, partial curve]"

# From PubChem BioAssay AID1460 (National Center for Advancing Translational Sciences (NCATS), 2008)
